Results from the supplement of paper PMC10681739.
The full ranking holds about 4,000 sequences; the median of “arbitrary fluorescence units” is about 830, and the highest 2% start at about 6,500. The list lacks most of the strong results.
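Note: Full-length recombinant human RUNX1 bound to double-stranded DNA microarray spots, detected with an Alexa488-labelled secondary antibody after the anti-RUNX1 primary, read as scanned spot fluorescence.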

Each sequence was assayed against RUNX1 (UniProt Q01196) (assay: RUNX1 binding intensity (PBM fluorescence), RUNX1 alone (arbitrary fluorescence units); higher = stronger binding). Conditions: RUNX1 concentration 2 nM; ETS1 concentration 0 nM.
Sequence of UniProt Q01196 (Q01196 whole entry): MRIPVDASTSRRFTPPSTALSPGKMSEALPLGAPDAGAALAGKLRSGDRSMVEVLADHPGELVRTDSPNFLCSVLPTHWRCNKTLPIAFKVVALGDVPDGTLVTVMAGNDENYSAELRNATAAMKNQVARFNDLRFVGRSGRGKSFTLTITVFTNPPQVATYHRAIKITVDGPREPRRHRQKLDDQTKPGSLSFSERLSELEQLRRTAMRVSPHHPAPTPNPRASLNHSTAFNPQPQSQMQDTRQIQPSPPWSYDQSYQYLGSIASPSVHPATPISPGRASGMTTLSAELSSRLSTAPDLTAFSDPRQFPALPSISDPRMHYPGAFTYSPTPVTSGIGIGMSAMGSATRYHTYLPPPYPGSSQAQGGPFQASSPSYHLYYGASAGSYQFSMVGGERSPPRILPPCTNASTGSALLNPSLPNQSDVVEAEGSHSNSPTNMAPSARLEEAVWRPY
Description: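 gcPBM on 36-bp genomic-derived probes (partner site mutated) containing one RUNX1 site and no ETS1 site. Recombinant human RUNX1 (2 nM) was incubated alone or with ETS1 (25 nM) and detected by anti-RUNX1 antibody fluorescence. Values are medians over 4 replicate spots (not normalised). The probes sit in constant array flanks that are not printed.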
For CAAGAGGAACCTGAACTTTGGAAACCACATTCTTAT, the RUNX1 binding intensity was 920.
For GTCCTCTTCATGTCCCCCAGGTGGGCATGTGGTTTG, the RUNX1 binding intensity was 832.
AGGCTGTTGTGGGTTGCGCCGCTTCGGAGGTGGGAG gave an RUNX1 binding intensity of 846.
In the case of ACTTCAATTCCCAACCTCCCCTGTGGTTAGGTGTGG, the RUNX1 binding intensity is reported as 1120.
Sequence TTCTGCACCACAACTGTGCTCTGAGTTCAGGCAACT has an RUNX1 binding intensity of 926.
TTATGCCTCAGAATGAACGAACCTCAAACACCCAGG was tested, and the RUNX1 binding intensity was 853.
CGGGTTCAGGACCGCTGATCGGAGGTGAGAATCCCA gave an RUNX1 binding intensity of 693.
GTCCTCCAGCAAGCCCGCGCTAACCACCGTGCCTTT showed an RUNX1 binding intensity of 1180.
GAGTGCCGATTCCCCCGCTCACCGCGGGCTAGGGAG gave an RUNX1 binding intensity of 770.
GTATCAGCCGCGCCGCAGTCGGAGGAGATAGACGCT showed an RUNX1 binding intensity of 726.
Work on GTTGCCCCACCTCCTGCCAGTGGTTTTTGGTTGGCC yielded an RUNX1 binding intensity of 947.
With ATTACATACGGGCTCCGCGACACGCCCGAACCACAA the RUNX1 binding intensity was 863.
GGAGACCCGGCAAGGCTCCATCCAGCGGTGGCGACA was tested, and the RUNX1 binding intensity was 763.
GTATCAATTCCCAGCTAAGAGCCCCACAGACTCTAA gave an RUNX1 binding intensity of 895.
AAAGAGGCAATCACGTACCCGAAAACCACATGCACA gave an RUNX1 binding intensity of 1080.
With CTACCGTGCCCACAAGGCAGCGCGCCGTAAGCCCCG the RUNX1 binding intensity was 1040.
With AGCTCTGCCAGCAAGTGAGAACCACAGGCCTCCCCT the RUNX1 binding intensity was 850.
In the case of GTCGGCAGTGGCCGTGAGCCCAAGCCGCGGTCCCGG, the RUNX1 binding intensity is reported as 757.
Sequence TGCTTCTGCGGTGGCAGTGGATTCCTCTGGCAAGGG has an RUNX1 binding intensity of 1330.
With TGACTCGCGGTCTTGTTATCAGTTGCCGGGATGACA the RUNX1 binding intensity was 924.
With CCAAGACCACAGCTCCAAGAGACCTTTCTGTTTATT the RUNX1 binding intensity was 1130.
Work on CTAGCCCAGAAAGCCGCAGCAGCTTGCTCAGGGACG yielded an RUNX1 binding intensity of 830.
Work on TTTACGGAATGTAGGCGGCGGCGGCGGTAGTGGTAG yielded an RUNX1 binding intensity of 716.
For GCGCGCTTCGGCCTTCATGCTAGCAACGCCCGCAGT, the RUNX1 binding intensity was 690.
With CGGTGCGGTGAGCTCGACACTCAATTCCCTGTGCAG the RUNX1 binding intensity was 858.
Work on TTGGGTTCGTGCCAACGCTCTCCAACCACTGCGTAA yielded an RUNX1 binding intensity of 811.
Work on ATCTCCAGATCCTCCCCATCGACCGCATGGTTTACC yielded an RUNX1 binding intensity of 1080.
GGGGGAGTTTTCGCAAGCGCTAACCGCGTTGGGGCC gave an RUNX1 binding intensity of 830.
Work on CCGCGCACCCGGCACTACCTCCCGACCCGCATCCCC yielded an RUNX1 binding intensity of 1440.
GCGGAGCACCTCCCACAGAGGGAACGAATTGCCAGC gave an RUNX1 binding intensity of 720.
AAAGCCATCCCGCAATTGTCAATGGCAGGGAGCCAC gave an RUNX1 binding intensity of 850.
Sequence GACATGTGGCTATTTTGGGCAATTGCCTGAGGAGGC has an RUNX1 binding intensity of 720.
Sequence TCGTGTTCTCCTCCGTTCTGTGGTAGCTTTTTGGTA has an RUNX1 binding intensity of 1110.
CACCTGAAAAGGCAAGCGCGGCCGCGCGGTTGGCGC showed an RUNX1 binding intensity of 731.
Sequence CCTAAGTGACAGCATGGTCTGGCGACCACATTGCCC has an RUNX1 binding intensity of 794.
GAAGGCAGTGGAGACAGTAAGGGGAAACCACAAACC was tested, and the RUNX1 binding intensity was 1060.
CGTCCCTAAACCACAGCTACAGCATGTAGGCACAAG gave an RUNX1 binding intensity of 2270.
With GGTTGCTCGGAGCCGGGACTGCCGCAGGGGGTGCCA the RUNX1 binding intensity was 778.
With TCGGGTGCGCGGTTCGGGGGCGGCTCGGACACCCCA the RUNX1 binding intensity was 701.
GCTGCCTTGTGGGCACGGTAGTTCAGCCGGGTCTGG was tested, and the RUNX1 binding intensity was 663.
In the case of CCGCTGACAGCCGCTTGGCCTGCGGCTTCTTTCTGT, the RUNX1 binding intensity is reported as 1010.
Work on ATGAGCTATTGCCTGCCTTGTGGTCAGAGCCAGACT yielded an RUNX1 binding intensity of 1040.
Sequence GCGGGGCGTGACCACGCACTTCCAGTTTTCTCGAAA has an RUNX1 binding intensity of 869.
GAGAAACCACGCAAACCAAGCCAGTTCCCCCAAGTC gave an RUNX1 binding intensity of 941.
CAAGAGAAAGGAGGTGGAAGCTCTTGTGGTCTGGAA was tested, and the RUNX1 binding intensity was 704.
In the case of GTAGTAAGTTGTGGTTAAAAGAGAGGACGTTCAGAG, the RUNX1 binding intensity is reported as 7590.
AAGCAGTCAGCATGGCCGAGCGGTCTAAGGCGCTGC showed an RUNX1 binding intensity of 672.
CAAAGCTACCACAAAGCTACCAGAGAACGAAAGAGA gave an RUNX1 binding intensity of 887.
With CCCTACTGCGTGCGGTGGCAGCTTTCTTACGGCAGT the RUNX1 binding intensity was 925.
TTTTTCTTGTGGCTTCTTCAGCCACATGCTGACCAA showed an RUNX1 binding intensity of 1200.
In the case of ATTAAAGACCTCCGTGCAAGACCACAGCTGCCTGAC, the RUNX1 binding intensity is reported as 841.
GGGGCCCCGGGTGCACTGAGCGGCTGCGGCGCGGCT gave an RUNX1 binding intensity of 666.
Sequence CACTCCCCGCCTCCGGTCTGCGGCGCGCTCGGGGCC has an RUNX1 binding intensity of 819.
For TATAATTTGCGGCTGGGTGTTTACTGTTTTTTTGCA, the RUNX1 binding intensity was 953.
In the case of AGGTGGAACTACTGTGTCAGGAGTCGTGGTTTTCAA, the RUNX1 binding intensity is reported as 885.
GGTACACCCCGCCCGCAGGTACCCGTACGGCGCAAG gave an RUNX1 binding intensity of 807.
For CGGCGCCTGCGGCCCACCCCTCCCTTTCAGGTCCCC, the RUNX1 binding intensity was 989.
Work on GCTCTCGCGGGAGATGTCCCTGCGGTGCAGCTGCCG yielded an RUNX1 binding intensity of 767.
ACAGCAAATGACATCAGAATCTCCAAACCACAACCA gave an RUNX1 binding intensity of 1480.
CAGCAGTGGGTTTGCAGGAGCAGGCTCCATCTGCAG was tested, and the RUNX1 binding intensity was 752.
Sequence CCGCGGTGGTGCCCTTGCCCCTGATGAGGACACTGA has an RUNX1 binding intensity of 831.
In the case of GTGGGTAGGGAGCAAGCTGTGAAACCACCTCCCCTC, the RUNX1 binding intensity is reported as 790.
Sequence CTGGTCACTGCGGTGAGGAGGCTTTTCATGGGGTAA has an RUNX1 binding intensity of 1160.
